Data as given in article PMC12136788.
The other results are listed elsewhere or left out.

T1: UNK ZnF1-3 (human, UniProt Q9C0B0 31-174)
T1 sequence: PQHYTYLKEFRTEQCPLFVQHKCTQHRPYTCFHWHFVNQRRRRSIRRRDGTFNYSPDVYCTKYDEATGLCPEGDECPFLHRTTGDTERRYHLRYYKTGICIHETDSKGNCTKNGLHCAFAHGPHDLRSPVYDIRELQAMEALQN

B1: chr6:42975684:42975685:+_ENSG00000112640_ENST00000485511|hu_hu|motif|central (ssRNA)
RNA: GGGAGUUCUACAGUCCGACGAUCACUGUCAAAUAGGUCUAGGAGAGCAAGUACAAACUUCUGGUCGAUGUACUUCUUGGCGGUGUUUGGCUGGAAAUCAGGAGACUCAAGGAAACGUAAGAAGAACUCAUACACGAGCUGGAGCAACAGAGGAUUGAGCAUCA
B2: chr13:29045409:29045410:-_ENSMUSG00000076431_ENSMUST00000067230|mus_mus|FALSE|FALSE (ssRNA)
RNA: GGGAGUUCUACAGUCCGACGAUCAUUUUGUUGCAAGGUAGGAAGCCAAGAAGCUUGCAUGCAACAGACCGGCAUGAAUAAAUGUAUGUUUCUCCCUCCCUCCUGCAAGAAGGGGAGCUGGUUACCGGCAGAGUUCCCCCACUGCAACAGAGGAUUGAGCAUCA
B3: chr14:76904430:76904431:+_ENSMUSG00000022010_ENSMUST00000022587|mus_mus|mus_mus_mus_hu_True|18_108 (ssRNA)
RNA: GGGAGUUCUACAGUCCGACGAUCUGCUGGAAAAAAAACCCUCGUGGAAAAAAAGAGGGAACACCAGCAGCCUUGUAUAAGCUAGAUAAAAUCUUCUGGCUUUCCGCAGCCCAGGGAGUGAGAACGGACGGCAGCCCUAAUUUACAACAGAGGAUUGAGCAUCA
B4: 7417412_7421492_895_3pUTR_ENSMUSG00000040021_ENSMUST00000165952|mouse|control|control (ssRNA)
RNA: GGGAGUUCUACAGUCCGACGAUCAGAGAUGGGCCGUGUCUCUGAGGAACUAGAGACUCUUUAGAACCUUUCCAGCUUUGUUUUCGGUUAAUUGAAUGUUGCACAUUUCCUGGUUUCAUGGUGGCAUUAAUAGGCCUGGCAGCUCAACAGAGGAUUGAGCAUCA
B5: 69556381_69556845_2733_CDS_ENSMUSG00000005198_ENSMUST00000058470|mouse|control|control (ssRNA)
RNA: GGGAGUUCUACAGUCCGACGAUCUACAUUCUGCUGCCCGACAACAGCAAUGACCUGGGAGAUGUUGAUCUUGGAACCCUUGGCUCCAGACACCACCAUAGACUUGAAGUUGUUAUAUUCAGAGAGGGAUUUCUGUGCAGAGGACAACAGAGGAUUGAGCAUCA
B6: chr1:163117127:163117128:-_ENSG00000143248_ENST00000313961|hu_mus|hu_hu_hu_mus_False|1_1 (ssRNA)
RNA: GGGAGUUCUACAGUCCGACGAUCUGCUACAAAGGAUGUAACUCAACUCACAGGGCAACUUUUGGAAGCCUGACCAGAUGACUACUUGAUUAGCUCCUUAUAAAAUUCAGAGCGCACAAAGCGGGGCAGAGAAUCCUUUUCCAUCAACAGAGGAUUGAGCAUCA
B7: 153779924_153780044_4694_3pUTR_ENSG00000143614_ENST00000368655|human|control|control (ssRNA)
RNA: GGGAGUUCUACAGUCCGACGAUCCAUCACUAAUCCCUGGGAAGAGUAUGAAAAUGGGGAGAAGAAAGGGUAAGAAAUCAAACCUCAGCGGUUGAACAAAGGGUCACCGAGCUAUACUAGUCAAGAAGCAGCUUCUAUGUAACUCAACAGAGGAUUGAGCAUCA
B8: chr1:66463027:66463028:+_ENSMUSG00000015222_ENSMUST00000114013|mus_mus|mus_mus_mus_hu_True|28_28 (ssRNA)
RNA: GGGAGUUCUACAGUCCGACGAUCUUUUCUUUCAGGAGUGGAAAUUCUGCCUCUCCCGGUUUUAAAAGGCUUUUCUUUUCUAUGUUUCUCAAGAGAUGAUCUCCGAGCAUCCUUCUCAGCUUUCUCCUCUUUAGGAAUAGUUUCCAACAGAGGAUUGAGCAUCA
B9: chr1:115275314:115275315:-_ENSG00000009307_ENST00000339438|hu_mus|FALSE|FALSE (ssRNA)
RNA: GGGAGUUCUACAGUCCGACGAUCAACCUCUAUGUUGGUUGCUCGUUCCAAUUUGUCACGUCGGUCUGUUGAAAUAUUAAACCUAACAUGGUCACCUUCCAGCAGGGUCACUUUGGAUUUUGUGUCUUUGUCUCCAAAGGGAAGCAACAGAGGAUUGAGCAUCA
B10: chr7:74379609:74379610:-_ENSMUSG00000030557_ENSMUST00000156690|mus_hu|FALSE|FALSE (ssRNA)
RNA: GGGAGUUCUACAGUCCGACGAUCGCAGGUAAGUGCCUGAUUCUGUGUAUGUAACACACACCCACACAUACACACUCACACCCACAUACAUAUAUAUGUAAAGGGAUAUAUAUAUGUAUGUACAUAUAAAUAUAUUUAACUCAUCAACAGAGGAUUGAGCAUCA
B11: chr12:39756943:39756944:-_ENSG00000139116_ENST00000544797|hu_mus|hu_hu_hu_mus_False|98_98 (ssRNA)
RNA: GGGAGUUCUACAGUCCGACGAUCGGUUUGGCUGUUACCCCCGAGGGAAUCCUGCAAGAGUCUUGUCAGCUUAGAGUCUCUGUAAGGGACAUGGGUGGCUCUCUUGCUCUUGUCCCCCAAGGCGCUGAUUACAUUCCCAAGAGCCAACAGAGGAUUGAGCAUCA
B12: chr10:112654219:112654220:+_ENSG00000150593_ENST00000280154|hu_mus|motif|central (ssRNA)
RNA: GGGAGUUCUACAGUCCGACGAUCCCACAAGGAUUUUAAUAAAUCUAAGAUCAUCUUGAAUGCACUUUCUCCAGUUGACUCGGAAACCAUUACAAUGGCUUCAUAUACAAGCUCGUGGUGAAAAUGAGGUACUUCCAGUUCCUUCAACAGAGGAUUGAGCAUCA
B13: chr5:132409753:132409754:+_ENSG00000170606_ENST00000304858|hu_hu|motif|central (ssRNA)
RNA: GGGAGUUCUACAGUCCGACGAUCUCUAUUAAAUGCACAUACAGAAACUUGAUAAGCAGAGUGGCCCAUGUCUACAAAAACGGCAUUUCUUGGUUUCUCUUCUAAGGCAGGAAGAUCCUGCUUAUAGAUUCCAUAUGCAAGAGCCAACAGAGGAUUGAGCAUCA
B14: 23874580_23874700_1019_3pUTR_ENSMUSG00000023909_ENSMUST00000024702|mouse|control|control (ssRNA)
RNA: GGGAGUUCUACAGUCCGACGAUCAACCCCAGCAUGGAGCUGGAGGAUGGAGCCCACACUCAGCAAGUGCAUGAUCUGGUGGGAGUUGCCCCAGUAGUCGAAGCGACCAGGCCCCCACCGCUCUGGCAGGCGUGCCACAUUCACCAACAGAGGAUUGAGCAUCA
B15: chr5:21408736:21408737:-_ENSMUSG00000042453_ENSMUST00000161356|mus_hu|mus_mus_mus_hu_False|28_98 (ssRNA)
RNA: GGGAGUUCUACAGUCCGACGAUCGUUGACAGAGUUGUAAAUGGUGGCUUCAUGGAACUGGAAAGGGGAGCAGCCAAUGCUGUUAGAAGAGGAAGGAAGGCACUGGGUCUGCACGAGCUGCCAGGAAUCCGAUCUUGCAUCCUUCAACAGAGGAUUGAGCAUCA
B16: chr2:48034705:48034706:-_ENSG00000138081_ENST00000403359|hu_mus|motif|central (ssRNA)
RNA: GGGAGUUCUACAGUCCGACGAUCCAUAGAAAGAAGGUACAUACUGGGACAUGAGUACAGUUACAGCAAGUCUAGGUGUGCGGACAAAACAGGGCACAUUCAAGUACAAUAAGAUUUGCUUGAAAUUAAAAACGAACUACAUGACAACAGAGGAUUGAGCAUCA
B17: 168328940_168329060_1778_3pUTR_ENSMUSG00000040596_ENSMUST00000169324|mouse|control|control (ssRNA)
RNA: GGGAGUUCUACAGUCCGACGAUCUGUGGCACUUUCUGAACCCCUGGACAAUUGAUUCACUUGAGAUGCUGUUCCAUGCAACCAUGAUCCACUCCAGGAAGAGGCCCAGGGGGGGCUUCUUAGCAUUUCCAGUGGGGCUGAGUGCAACAGAGGAUUGAGCAUCA
B18: chr3:179287964:179287965:+_ENSG00000136518_ENST00000429709|hu_hu|hu_hu_hu_mus_True|78_108 (ssRNA)
RNA: GGGAGUUCUACAGUCCGACGAUCCUUUAGAGGUGAAAUGGCCUCCAUGUUCUCCCUCGGAACACGCAGGGCAUUGGUGUCUAUGUAGUAGGUGGGCCCGCCCUGCUUGCCUUUGUCACCAUCAAUCUCCAUCAUUGUACUUCCCAACAGAGGAUUGAGCAUCA
B19: chr2:42509997:42509998:+_ENSG00000143924_ENST00000318522|hu_mus|hu_hu_hu_mus_True|1_1 (ssRNA)
RNA: GGGAGUUCUACAGUCCGACGAUCUCGCUGAGUCCUCUCCUCAUAAUUAAACAGGACUACCACUGAGGCGAUAAAAUAAACUAUCUCCCCUGUGGGAAGCAGGUAUACAUUCGCUCUACAGUCCUUUCCUCGAUAACCAUAUGCCAACAGAGGAUUGAGCAUCA
B20: chr21:34924380:34924381:+_ENSG00000159140_ENST00000381679|hu_hu|FALSE|FALSE (ssRNA)
RNA: GGGAGUUCUACAGUCCGACGAUCUCUAGGUGACAUCCUAUAGGGAUCAGGAGUUAGUCUGUAGGGAUCAUGGCCUAAUCUAUAAGGGUCUUGUCCUAACCUGUAAGCAUCAUGACCUAAUCUAUAGGGGUCAUGGCCCAACCUCAACAGAGGAUUGAGCAUCA
B21: 65694603_65694723_2569_CDS_ENSMUSG00000021978_ENSMUST00000022550|mouse|control|control (ssRNA)
RNA: GGGAGUUCUACAGUCCGACGAUCUCCGAGCGCUGCCUGGAACUCCUUGCCAGAGCCCCCAGCCCCGCCACCGAUGGGCCGAAAUCCAGUCCCUGAGCCCAGGAAUUUGGCCUCAGAGGGCAACACAGGAUCAAAGGGUGUGUGCAACAGAGGAUUGAGCAUCA
B22: chr3:176767854:176767855:-_ENSG00000177565_ENST00000430069|hu_hu|hu_hu_hu_mus_False|68_108 (ssRNA)
RNA: GGGAGUUCUACAGUCCGACGAUCGACAUCCUUGUUGCUGGGCACGUCCUGCCCUCCUUCCCGUAUGCAAUGUCUAAGCACGAGCUGCGUAGGGCCACUCGUGCUGUUCUCACUGAGGUUCCAGAUUCUUGCCGUGGAGUCUCCCAACAGAGGAUUGAGCAUCA

Biological target: T1, UNK ZnF1-3
Assay: nsRBNS (natural sequence RNA bind-n-seq); RBNS binding buffer (assumed for nsRBNS): 25 mM Tris pH 7.5, 150 mM KCl, 3 mM MgCl2, 0.01% Triton X-100, 500 ug/ml BSA, 20 U/ml SUPERase-In, 4 C; UNK is unkempt and MSI1 is Musashi-1; names of the RNAs are library labels; protein concentration not given here; high values mean tight binding

Binder	binding signal [enrichment R]
B1	1.65
B2	1.13
B3	1.56
B4	0.836
B5	0.974
B6	1.16
B7	2.43
B8	0.43
B9	0.601
B10	0.913
B11	0.74
B12	0.956
B13	0.898
B14	0.742
B15	1.8
B16	1.36
B17	0.974
B18	0.554
B19	1.03
B20	0.864
B21	1.27
B22	0.551
